Test results from PMC3797048.
No constants are given. Whether binding was seen depends on the method and setting. For part of these data: Binding seen in cells or lysates may run through a third protein. Some results given as binding are weak or reduced against the parent protein; the word gives no strength.

Amino acid sequences for entries named in this document (tags omitted). Residues count along the entry.
UniProt P78324, residues 31-504: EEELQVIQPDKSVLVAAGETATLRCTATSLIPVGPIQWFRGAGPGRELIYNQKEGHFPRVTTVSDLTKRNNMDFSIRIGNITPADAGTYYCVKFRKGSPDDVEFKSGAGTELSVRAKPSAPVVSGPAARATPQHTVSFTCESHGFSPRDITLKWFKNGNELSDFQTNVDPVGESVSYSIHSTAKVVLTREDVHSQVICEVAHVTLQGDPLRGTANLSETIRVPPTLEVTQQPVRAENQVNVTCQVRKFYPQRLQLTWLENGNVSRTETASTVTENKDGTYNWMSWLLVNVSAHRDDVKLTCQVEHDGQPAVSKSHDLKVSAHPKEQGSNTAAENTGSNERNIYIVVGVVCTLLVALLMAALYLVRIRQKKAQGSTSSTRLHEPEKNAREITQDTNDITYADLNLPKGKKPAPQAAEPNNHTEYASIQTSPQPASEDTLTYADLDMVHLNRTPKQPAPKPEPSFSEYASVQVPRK

Tests used:
[1] = target: SIRPα of human peripheral blood monocytes (naïve, MCP-1-treated or transmigrated) (human (endogenous in peripheral blood monocytes)) (UniProt P78324); experiment: cross-linking; naïve monocytes (human and murine) treated with the cell-impermeable crosslinker DTSSP, 30 min, 25°C; lysis; SDS-PAGE and WB under non-reducing and reducing conditions
[2] = target: SIRPα of human peripheral blood monocytes (naïve, MCP-1-treated or transmigrated) (human (endogenous in peripheral blood monocytes)) (UniProt P78324); experiment: sucrose density gradient equilibrium ultracentrifugation; lysates of PBMC (naïve monocytes); sucrose gradient 5-35%, 165,000 g, 14 h, 4°C; ten fractions, WB of SIRPα
[3] = target: T1, murine SIRPα of mouse peripheral monocytes and macrophages (mouse (endogenous in monocytes and macrophages)), P97797; experiment: cross-linking; transmigrated monocytes and macrophages treated with the cell-impermeable crosslinker DTSSP, 30 min, 25°C; lysis; SDS-PAGE and WB under non-reducing and reducing (+DTT) conditions; DTT resolved SIRPα to its monomeric size; details: remark: other sources report otherwise
T1 chain: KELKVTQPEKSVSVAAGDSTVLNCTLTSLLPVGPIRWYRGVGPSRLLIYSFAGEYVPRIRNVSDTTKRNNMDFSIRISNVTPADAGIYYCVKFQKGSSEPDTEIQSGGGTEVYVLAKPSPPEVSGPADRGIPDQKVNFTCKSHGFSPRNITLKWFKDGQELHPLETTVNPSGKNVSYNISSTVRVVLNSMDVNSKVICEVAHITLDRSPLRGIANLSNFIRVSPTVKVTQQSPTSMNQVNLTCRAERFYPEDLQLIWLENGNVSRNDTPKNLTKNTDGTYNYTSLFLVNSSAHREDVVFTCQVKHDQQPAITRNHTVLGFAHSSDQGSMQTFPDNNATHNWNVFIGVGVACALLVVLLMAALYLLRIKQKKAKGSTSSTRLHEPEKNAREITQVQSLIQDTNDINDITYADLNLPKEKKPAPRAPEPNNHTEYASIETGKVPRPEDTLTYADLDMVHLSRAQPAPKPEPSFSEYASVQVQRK

[4] = target: T1, murine SIRPα of mouse peripheral …; experiment: sucrose density gradient equilibrium ultracentrifugation; lysates of DTSSP-crosslinked transmigrated monocytes and macrophages; sucrose gradients 5-35% (human monocytes) or 15-45% (mouse macrophages), 165,000 g, 14 h, 4°C; ten fractions, WB of SIRPα; details: remark: other sources report otherwise
[5] = target: murine SIRPα of mouse peripheral monocytes and macrophages (mouse (endogenous in monocytes and macrophages)) (UniProt P97797); experiment: cross-linking; naïve monocytes (human and murine) treated with the cell-impermeable crosslinker DTSSP, 30 min, 25°C; lysis; SDS-PAGE and WB under non-reducing and reducing conditions
[6] = target: murine SIRPα of mouse peripheral monocytes and macrophages (mouse (endogenous in monocytes and macrophages)) (UniProt P97797); experiment: condition: only without DTSSP crosslinking, in 1% Triton X-100 lysate; sucrose density gradient equilibrium ultracentrifugation; lysates (1% Triton X-100) of macrophages without DTSSP crosslinking; sucrose gradient 15-45%, 165,000 g, 14 h, 4°C; ten fractions, WB of SIRPα

SIRPα of human peripheral blood monocytes (naïve, MCP-1-treated or transmigrated) (from UniProt P78324 31-504) (receptor)
binding [1]: no binding (condition: naïve monocytes) | binding [2]: no binding (condition: naïve monocytes (PBMC))

B1: murine SIRPα of mouse peripheral monocytes and macrophages, P97797 32-513 (receptor)
chain: KELKVTQPEKSVSVAAGDSTVLNCTLTSLLPVGPIRWYRGVGPSRLLIYSFAGEYVPRIRNVSDTTKRNNMDFSIRISNVTPADAGIYYCVKFQKGSSEPDTEIQSGGGTEVYVLAKPSPPEVSGPADRGIPDQKVNFTCKSHGFSPRNITLKWFKDGQELHPLETTVNPSGKNVSYNISSTVRVVLNSMDVNSKVICEVAHITLDRSPLRGIANLSNFIRVSPTVKVTQQSPTSMNQVNLTCRAERFYPEDLQLIWLENGNVSRNDTPKNLTKNTDGTYNYTSLFLVNSSAHREDVVFTCQVKHDQQPAITRNHTVLGFAHSSDQGSMQTFPDNNATHNWNVFIGVGVACALLVVLLMAALYLLRIKQKKAKGSTSSTRLHEPEKNAREITQVQSLIQDTNDINDITYADLNLPKEKKPAPRAPEPNNHTEYASIETGKVPRPEDTLTYADLDMVHLSRAQPAPKPEPSFSEYASVQVQRK
binding [3]: binds | binding [4]: binds

B2: murine SIRPα of mouse peripheral monocytes and macrophages (receptor, UniProt P97797 32-513)
chain: KELKVTQPEKSVSVAAGDSTVLNCTLTSLLPVGPIRWYRGVGPSRLLIYSFAGEYVPRIRNVSDTTKRNNMDFSIRISNVTPADAGIYYCVKFQKGSSEPDTEIQSGGGTEVYVLAKPSPPEVSGPADRGIPDQKVNFTCKSHGFSPRNITLKWFKDGQELHPLETTVNPSGKNVSYNISSTVRVVLNSMDVNSKVICEVAHITLDRSPLRGIANLSNFIRVSPTVKVTQQSPTSMNQVNLTCRAERFYPEDLQLIWLENGNVSRNDTPKNLTKNTDGTYNYTSLFLVNSSAHREDVVFTCQVKHDQQPAITRNHTVLGFAHSSDQGSMQTFPDNNATHNWNVFIGVGVACALLVVLLMAALYLLRIKQKKAKGSTSSTRLHEPEKNAREITQVQSLIQDTNDINDITYADLNLPKEKKPAPRAPEPNNHTEYASIETGKVPRPEDTLTYADLDMVHLSRAQPAPKPEPSFSEYASVQVQRK
binding [5]: no binding (condition: naïve monocytes) | binding [6]: no binding
